Data reported in patent US7935343B2.

Target: human IL-13 (human)
Sequence (chain, as listed by the source): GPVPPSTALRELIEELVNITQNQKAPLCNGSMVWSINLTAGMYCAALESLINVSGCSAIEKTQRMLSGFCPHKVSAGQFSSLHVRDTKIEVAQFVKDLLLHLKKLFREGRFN

IC50, TF-1 cell proliferation: 111 nM
B1: BAK167A11 scFv (scFv, V domains shown)
VH: [in this place about 100 residues]VGAAGEGYYGYWGRGTLVTVSS
VL: NFMLTQPHSVSESPGKTVTISCTRSSGSIASNYVQWYQQRPGSAPTTVIYDDNQRPSGVPDRFSGSIDSSSNSASLTISGLKTEDEADYYCQSYDSNNDVFGGGTKVTVL
